In patent US20190314452A1 (YUHAN, published 2019):

Molecular target: T1, human β-klotho (human, UniProt Q86Z14 1-1044)
T1 sequence (looked up): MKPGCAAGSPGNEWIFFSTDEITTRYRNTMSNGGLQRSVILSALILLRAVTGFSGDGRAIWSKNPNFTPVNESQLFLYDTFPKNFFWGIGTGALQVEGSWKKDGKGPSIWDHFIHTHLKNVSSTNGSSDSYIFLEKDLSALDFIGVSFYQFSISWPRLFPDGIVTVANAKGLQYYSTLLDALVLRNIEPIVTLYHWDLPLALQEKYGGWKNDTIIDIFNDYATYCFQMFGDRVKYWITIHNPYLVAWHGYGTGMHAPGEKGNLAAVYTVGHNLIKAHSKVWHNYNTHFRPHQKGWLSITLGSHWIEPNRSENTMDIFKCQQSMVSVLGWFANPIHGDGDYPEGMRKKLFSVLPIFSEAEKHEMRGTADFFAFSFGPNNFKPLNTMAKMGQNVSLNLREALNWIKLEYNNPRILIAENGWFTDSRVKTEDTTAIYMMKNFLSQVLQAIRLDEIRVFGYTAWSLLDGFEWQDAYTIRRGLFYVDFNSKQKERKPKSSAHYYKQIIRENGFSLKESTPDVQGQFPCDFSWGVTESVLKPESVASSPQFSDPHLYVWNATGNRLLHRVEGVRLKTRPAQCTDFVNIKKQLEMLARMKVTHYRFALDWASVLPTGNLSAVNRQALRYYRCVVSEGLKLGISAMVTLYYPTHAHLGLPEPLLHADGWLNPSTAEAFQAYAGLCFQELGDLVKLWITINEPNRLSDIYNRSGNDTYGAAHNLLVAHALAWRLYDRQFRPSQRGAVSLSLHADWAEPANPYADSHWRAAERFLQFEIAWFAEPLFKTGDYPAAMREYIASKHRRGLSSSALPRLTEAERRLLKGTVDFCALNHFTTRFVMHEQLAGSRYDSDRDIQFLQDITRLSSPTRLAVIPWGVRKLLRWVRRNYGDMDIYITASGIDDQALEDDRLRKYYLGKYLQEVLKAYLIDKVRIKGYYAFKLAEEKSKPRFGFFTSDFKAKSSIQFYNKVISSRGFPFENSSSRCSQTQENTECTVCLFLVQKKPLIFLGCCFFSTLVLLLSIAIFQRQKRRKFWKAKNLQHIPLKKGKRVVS
Test: cell-based or functional assay

in vitro FGF21 activity (ERK phosphorylation, EC50 compared): 2 times higher than DFD1 and RGE (Amgen)
B1: Fc-FGF21 (Lilly) (Fc fusion)
chain: [human IgG4 Fc with S228P F234A L235A (EU numbers) left out here]GGGGSGGGGSGGGGSAHPIPDSSPLLQFGGQVRQRYLYTDDAQQTECHLEIREDGTVGCAADQSPESLLQLKALKPGVIQILGVKTSRFLCQRPDGALYGSLHFDPEACSFREDLKEDGYNVYQSEAHGLPLHLPGDKSPHRKPAPRGPARFLPLPGLPPALPEPPGILAPQPPDVGSSDPLRLVEPSQLRSPSFE
